Laboratory results published in patent publication USRE48267E1, “Variants of C-type natriuretic peptide” (priority 2009, dated 2020).
Entries after “also recorded” stand apart in the source; their conditions may differ. Not every detail of the peptide structures is certain; ends, links or a residue may be inferred.

Legend:
[1] = test system: wild-type mouse femurs and tibias; experiment: mouse organ culture model of endochondral bone growth, wild-type bones
Experimental: To determine the efficacy of CNP variants in stimulating longitudinal bone growth, CNP variants were tested in a mouse organ culture model of endochondral bone growth in wild-type mice and transgenic mice having a G380R mutation in the human FGFR-3 gene (FGFR3^wt/Ach heterozygote) which represent a mouse model of mild achondroplasia. In brief, the pharmacological activity of wild-type CNP22 and CNP variants was compared in an organ culture model of embryonic or neonatal mouse tibiae, isolated from wild-type and FGFR3^wt/Ach littermates. Overall bone growth and histological changes within the growth plate were assessed. Conditioned culture medium is also assessed for biomarkers of intracellular signaling (cGMP), cartilage metabolism (type II collagen, other collagens, aggrecan chondroitin sulfate), bone metabolism (bone alkaline phosphatase, osteocalcin, type I collagen [C-telopeptide, N-telopeptide]), and inflammation (interleukin-1, interleukin 6, interleukin-11).
The efficacy of wtCNP22, CNP37 and PEO24-[…]22(K4R) (SEQ ID NO: 36) in stimulating longitudinal femoral growth was evaluated in the mouse organ culture model. For these experiments femora were isolated from 2-3 day old wild-type mice and cultured in alphaMEM supplemented with 0.2% BSA, 0.5 mM L-glutamine, 40 units penicillin/mL and 40 ug streptomycin/mL, for 8 days in the presence of vehicle, CNP22 or CNP variants. The treatment commenced at day 0 and was repeated every two days thereafter, as the medium was changed. Bones were measured prior to treatment and every two days thereafter, using a dissection microscope fitted with a 1 cm eye-piece reticule. Conditioned medium was used for biomarker analysis. At day 8 bones were fixed in 4% paraformaldehyde for 24 hr, decalcified in 5% formic acid for 24 hrs, dehydrated and embedded in paraffin. Bones were sectioned at 5 um (microns), which were then deparaffinized, rehydrated, and stained with Alcian Blue for 30 min (pH 2.5; MasterTech). Alcian Blue stains cartilage blue. Stained sections were visualized and photographed by brightfield microscopy. The thickness of the hypertrophic region of the growth plate cartilage was determined by image analysis.
In addition to the distribution of CNP variants in the bone growth plate, the ex vivo effects of CNP37, CNP22 and vehicle on cells in the FGFR3^ach and wild-type growth plate, e.g., hypertrophic cell size and cellularity of proliferating zone, were also evaluated. Bone samples were prepared, including Alcian Blue staining, as described above. Images of the entire proximal growth plate were taken at 4× magnitude. The growth plate is divided into three zones, starting from the epiphyseal side of cartilage: the resting zone (individual small chondrocytes), proliferating zone (columns of stacked chondrocytes parallel to the long axis of the bone), and hypertrophic zone (large chondrocytes and thin septa between the chondrocytes). In these regions, measurements were made by ImageJ software, including the number of proliferating chondrocytes per column and the density of hypertrophic chondrocytes. A test square (4×4 mm^2) at five different regions of the hypertrophic zone was used to determine the density of hypertrophic chondrocytes. The cell size of hypertrophic chondrocytes was calculated by 1 over determined cell density. Cellularity of proliferating columns was increased by CNP37 and CNP22 in both wild-type and FGFR3^ach mice (FIGS. 35B and C).
Femurs and tibias were isolated from wild-type and FGFR3^ach mice as described above. Bones were cultured with CNP22 or a variant thereof for eight days with the replacement of media every two days. On the eighth day, media was collected and analyzed for the biomarkers cGMP (cyclic guanosine 3′, 5′ cyclic monophosphate) and fragments of cleaved collagen type II, a cartilage-specific marker for cartilage turnover. […]

cGMP = experiment: plasma cGMP concentration in rats; format: in vivo, rat
Experimental: Recombinant wild-type CNP22, CNP37 and PEO24-GANRR-CNP22 (K4R) (SEQ ID NO: 36) were evaluated.
Plasma cGMP concentrations in the sample at 5, 30, 60 and 90 minutes after i.v. dosing, or at 5, 30, 60, 120 and 180 minutes after s.c. dosing, were determined by the competitive RIA using anti-cGMP monoclonal antibody. Standard samples were prepared. 100 uL of the assay samples (standard solutions for the calibration curve or the diluted plasma samples for cGMP determination) were transferred to test tubes. Then 100 uL of anti-cGMP monoclonal antibody solution and 100 uL of ^125I-labeled succinyl cGMP tyrosine methyl ester solution were added to the tubes, respectively. All tubes were kept at 4° C. overnight. After the addition of 500 uL dextran charcoal solution, the tubes were vortexed and then placed on ice for 10 minutes. The reaction mixture was centrifuged and 500 uL of the supernatant was transferred from each sample to a new test tube. The amount of radiation (gamma line) in the supernatant was measured by a gamma-counter.

FGFR3^ach mice = experiment: bone growth biomarkers in FGFR3^ach mice; format: in vivo, mouse; conditions: 200 nmol/kg s.c. daily, Day 36
Experimental: Plasma and serum were collected during the study. Harvested plasma was stored with 10× protease inhibitor at −80° C. until analysis. cGMP levels were measured 15 minutes post-injection on Day 36 from K2-ETDA plasma collection tubes. Fragments of cleaved collagen type II (cartilage-associated biomarkers), osteocalcin (bone-associated biomarker), and IgG (relating to immunogenicity) were measured from terminal bleed serum at the end of the study (Day 37). cGMP was measured using a commercially available ELISA kit (Cayman Chemical Co., Cat. No. 581021.1), cleaved collagen type II (Cartilaps) was measured using a commercially available kit from Immunodiagnostic Systems (Cat. No. 3CAL4000), and osteocalcin was measured using a commercially available kit from Biomedical Technologies Inc. (Stoughton, Mass.).

## CC[C@H](C)[C@@H]1NC(=O)[C@H](CCCNC(=N)N)NC(=O)[C@H](CC(=O)O)NC(=O)[C@H](CC(C)C)NC(=O)[C@H](CCCCN)NC(=O)[C@H](CC(C)C)NC(=O)CNC(=O)[C@H](Cc2ccccc2)NC(=O)[C@@H](NC(=O)CNC(=O)[C@H](CCCCN)NC(=O)[C@H](CO)NC(=O)[C@H](CC(C)C)NC(=O)CNC(=O)[C@H](CCCCN)NC(=O)[C@H](CCCCN)NC(=O)[C@H](CC(N)=O)NC(=O)[C@H](C)NC(=O)CNC(=O)[C@H](CCCCN)NC(=O)[C@H](Cc2ccc(O)cc2)NC(=O)[C@H](CCCCN)NC(=O)[C@H](CCCNC(=N)N)NC(=O)[C@H](C)NC(=O)[C@H](CC(N)=O)NC(=O)[C@@H]2CCCN2C(=O)[C@H](Cc2c[nH]cn2)NC(=O)[C@H](CCC(=O)O)NC(=O)[C@@H](N)CCC(N)=O)CSSC[C@@H](C(=O)O)NC(=O)CNC(=O)[C@H](CC(C)C)NC(=O)CNC(=O)[C@H](CO)NC(=O)[C@H](CCSC)NC(=O)[C@H](CO)NC(=O)CNC1=O [Analog BL]
[1]; ex-planted wild-type mouse femurs and tibias, day 8
  cGMP levels in conditioned media: large increase (p<0.01)
[1]; treated every two days
  longitudinal growth of wild-type mouse tibia ex vivo: increased the longitudinal growth of the tibia compared to vehicle or CNP22
[1]; treated every two days, 8 days, listed as CNP37
  longitudinal growth of wild-type mouse femur ex vivo: effective in stimulating longitudinal femoral growth; also recorded: stimulated the growth of wild-type mouse femur
[1]; wild-type growth plate, ex vivo
  cellularity of proliferating columns: increased
[1]; wild-type mouse femurs
  levels of cleaved collagen type II in conditioned media: increased
cGMP; i.v. 20 nmol/kg, at 30, 60 and 90 minutes
  plasma levels of cGMP compared with CNP22: much higher plasma levels of cGMP
cGMP; s.c. 50 nmol/kg
  plasma concentrations of cGMP compared with CNP22: substantially higher plasma concentrations of cGMP
FGFR3^ach mice
  cGMP plasma levels 15 minutes post-injection, compared to vehicle: increase
